# Experiments:
# S. aureus 147 = experiment: microbe, parasite or virus in culture; assay type: cell-based, Staphylococcus aureus; settings: for MBEC S. aureus 147: CBD assay, clinical isolate; for MBC: Staphylococcus aureus, 147, read-out: MBC S. aureus 147
# [1] = system: USA300 S. aureus carrying pCM29_GFP biofilms; experiment: Confocal microscopy of pre-formed MRSA biofilms; assay type: cell-based, Staphylococcus aureus; settings: 25 μM
# [2] = LDH release assay for HeLa cytotoxicity; assay type: cell-based; settings: human, HeLa cells
# MRSA 1707 biofilms = experiment: Calgary Biofilm Device assay; assay type: cell-based; settings: Staphylococcus aureus, read-out: MBC MRSA 1707
# [3] = Hemolysis assay with red blood cells; assay type: cell-based; settings: human, human red blood cells (2% hRBC suspension), pH 7.2
# MRSA 44 biofilms = experiment: Calgary Biofilm Device assay; assay type: cell-based; settings: Staphylococcus aureus, read-out: MBC MRSA 44
# [4] = system: S. epidermidis 12228 biofilms; experiment: Calgary Biofilm Device assay; assay type: cell-based, Staphylococcus epidermidis
# MRSA 2 = experiment: microbe, parasite or virus in culture; assay type: cell-based, Staphylococcus aureus; settings: for MBEC MRSA 2: CBD assay, clinical isolate
# S. aureus 138 = experiment: microbe, parasite or virus in culture; assay type: cell-based, Staphylococcus aureus
# S. aureus 156 = experiment: microbe, parasite or virus in culture; assay type: cell-based, Staphylococcus aureus
# S. aureus 129 = experiment: microbe, parasite or virus in culture; assay type: cell-based, Staphylococcus aureus; settings: for MBEC S. aureus 129: CBD assay, clinical isolate; for MBC: Staphylococcus aureus, 129, read-out: MBC S. aureus 129
# MRSE 35984 biofilms = experiment: Calgary Biofilm Device assay; assay type: cell-based; settings: Staphylococcus epidermidis, read-out: MBC MRSE 35984
# MRSA and MRSE biofilms = experiment: Calgary Biofilm Device assays, MRSA and MRSE; assay type: cell-based
# dormant Mtb CDC1551 = experiment: MIC against dormant Mtb; assay type: cell-based, Mycobacterium tuberculosis; settings: dormant vs replicating Mtb
# VRE 700221 = experiment: MIC broth microdilution; assay type: cell-based, Enterococcus faecium; settings: Enterococcus, read-out: MIC VRE 700221
# MRSA clinical isolates = experiment: Calgary Biofilm Device assays across MRSA clinical isolates; assay type: cell-based; settings: Staphylococcus aureus, read-out: MBC against MRSA clinical isolates
# VRE 700221 biofilms = experiment: Calgary Biofilm Device assay; assay type: cell-based, Enterococcus faecium; settings: Enterococcus, read-out: MBC VRE 700221
# MRSA 1 = experiment: microbe, parasite or virus in culture; assay type: cell-based, Staphylococcus aureus
SMILES,MBEC S. aureus 147 (S. aureus 147) [µM],MBC (S. aureus 147) [µM],MBC (MRSA 1707 biofilms) [µM],"hemolysis at 1 h, 200 µM [3] [%]",MBEC MRSA 2 (MRSA 2) [µM],MBEC S. aureus 129 (S. aureus 129) [µM],MBC (S. aureus 129) [µM],MBC (MRSE 35984 biofilms) [µM],MBEC against MRSA and MRSE biofilms (MRSA and MRSE biofilms) [µM],other results
"Oc1c(Br)cc(Br)c2nc3ccccc3nc12 [Compound 1, 2,4-dibromo-1-hydroxyphenazine]",≥ 200,50,50,≤ 1,≥ 200,> 200,75,50,,"biofilm height ([1]; 24-hour treatment, untreated ∼30 μm): ~20 μm; polysaccharide matrix of MRSA biofilm ([1]; concanavalin A Texas Red stain): much less dense than the untreated biofilms; IC50 at 24 h [2]: > 100 µM; MBC (MRSA 44 biofilms): 100 µM; MBEC S. epidermidis 12228 ([4]; CBD assay): 50 µM; MBC ([4]; Staphylococcus epidermidis, read-out: MBC S. epidermidis 12228): 25 µM; MBEC S. aureus 138 (S. aureus 138; CBD assay, clinical isolate): 200 µM; MBC (S. aureus 138; Staphylococcus aureus, 138, read-out: MBC S. aureus 138): 50 µM; MBEC S. aureus 156 (S. aureus 156; CBD assay, clinical isolate): ≥ 200 µM; MBC (S. aureus 156; Staphylococcus aureus, 156, read-out: MBC S. aureus 156): 50 µM"
"O=C(O)CN(CCN(CC(=O)O)CC(=O)O)CC(=O)O [EDTA, Ethylenediaminetetraacetic acid]",,,> 2000,≤ 1,,,,1000,> 2000,
NNC(=O)c1ccncc1 [Isoniazid],,,,,,,,,,tolerance of dormant Mtb relative to replicating bacteria (dormant Mtb CDC1551): more than 1000 times
"c1ccc(CN(CCN(Cc2ccccn2)Cc2ccccn2)Cc2ccccn2)nc1 [TPEN, N,N,N′,N′-Tetrakis(2-pyridinylmethyl)-1,2-ethanediamine]",,,,≤ 1,,,,250,> 2000,
CN[C@H](CC(C)C)C(=O)N[C@H]1C(=O)N[C@@H](CC(N)=O)C(=O)N[C@H]2C(=O)N[C@H]3C(=O)N[C@H](C(=O)N[C@H](C(=O)O)c4cc(O)cc(O)c4-c4cc3ccc4O)[C@H](O)c3ccc(c(Cl)c3)Oc3cc2cc(c3O[C@@H]2O[C@H](CO)[C@@H](O)[C@H](O)[C@H]2O[C@H]2C[C@](C)(N)[C@H](O)[C@H](C)O2)Oc2ccc(cc2Cl)[C@H]1O [Vancomycin],> 2000,5.9,3.9,≤ 1,> 2000,> 2000,5.9,3,> 2000,"MBC (MRSA and MRSE biofilms; read-out: MBC against MRSA and MRSE): 3 to 7.8 µM; MIC (VRE 700221): > 100 µM; MBC (MRSA clinical isolates): 3 to 7.8 µM; MBC (MRSA 2; Staphylococcus aureus, MRSA, read-out: MBC MRSA 2): 5.9 µM; MBC (VRE 700221 biofilms): > 200 µM; MBEC MRSA 1 (MRSA 1; CBD assay, clinical isolate): > 2000 µM; MBC (MRSA 1; Staphylococcus aureus, MRSA, read-out: MBC MRSA 1): 3 µM"
